Experimental data taken from PubChem BioAssay AID624296 (National Center for Advancing Translational Sciences (NCATS), 2012).
Hit rate of the full screen: of about 350,000 compounds, about 9,900 (2.8%) were called active. This list was built around the results that the source calls inconclusive (neither active nor inactive); the mix of calls is not that of the screen. Calls follow the shape of the dose curve; as a rule, active = well fitted activation curve with a large enough effect; inconclusive = small, poorly fitted or top-dose-only effect; inactive = no such curve, though single readings can be large or run the other way. No potency is given beside an inconclusive call; the fits are too rough.

test: A quantitative high throughput screen for small molecules that induce DNA re-replication in MCF 10a normal breast cells.; also: nearly all actives have a fitted effect of over 50% in size; as to activity, positive = re-replication: % of control where 0% means no effect; settings: MCF 10A DNA re-replication, Hoechst nuclear intensity, 48 h; activity, positive = re-replication: at 46.1 µM (top of the series)
Potency is read from the fitted curve at half-maximal effect; tags tell the direction and shape of the fitted curve.

| SMILES | Potency | activity, positive = re-replication |
| --- | --- | --- |
| Cc1ccc(CN2C(=O)N/C(=C\c3ccc(-c4ccc(C(=O)O)cc4C)o3)C2=O)cc1 | inconclusive [activator, partial curve, poor fit] |  |
| COc1ccc(C2c3c(ncn(CCCO)c3=N)Oc3ccc4ccccc4c32)cc1 (stereo unspecified) | inconclusive [activator, single point] |  |
| Cc1c(-c2ccccc2)nc2ccccc2c1C(=O)OCC(=O)Nc1ncc(C(F)(F)F)cc1Cl | inconclusive [activator, partial curve] |  |
| O=C(CCCC(=O)c1ccccc1)NCCc1ccccc1F |  | inactive: -10% |
| Cn1cccc1/C=N\NC(=O)c1cncc(Br)c1 | inconclusive [activator, single point] |  |
| S=c1[nH]nc(COc2ccccc2)n1/N=C/c1ccc(Br)cc1 | inconclusive [activator, single point] |  |
| COCCNC(=S)Nc1ccccn1 | inconclusive [activator, partial curve, poor fit] |  |
| Clc1nc2ccccc2cc1-c1nnn(-c2ccccc2Br)n1 | inconclusive [activator, full curve, poor fit] |  |
| O=C(Cc1cccs1)Nc1ccc(Cl)cc1 | inconclusive [activator, single point] |  |
| O=C(Cc1ccc(-n2cccc2)cc1)N1CCN(c2ccccc2F)CC1 | inconclusive [activator, single point] |  |
| CC1(C)Cc2c(ccc3ccccc23)/C(=C/C#N)N1 | inconclusive [activator, partial curve, poor fit] |  |
| COc1ccc(-c2c(C(F)(F)F)nn(C)c2NC(=O)c2cccnc2)cc1 | inconclusive [activator, partial curve, poor fit] |  |
| Cc1cn(CC(=O)N[C@H](CO)Cc2c[nH]c3ccccc23)c(=O)[nH]c1=O | inconclusive [activator, single point] |  |
| Cc1ccccc1-n1c(SCc2ccccn2)nc2n[nH]c(C)c2c1=N | inconclusive [activator, partial curve, poor fit] |  |
| O=C(Nc1ccc2[nH]ncc2c1)c1cccc(F)c1 | inconclusive [activator, partial curve, poor fit] |  |
| COC(=O)c1c(NC(NC(=O)C(C)(C)C)C(Cl)(Cl)Cl)sc2c1CCC2 (stereo unspecified) | inconclusive [activator, single point] |  |
| COc1cccc2sc(NN)nc12 |  | inactive: 2.87% |
| COC(=O)c1ccccc1NC(=O)COC(=O)c1ccccc1N=Nc1ccc(N(C)C)cc1 | inconclusive [activator, full curve, poor fit] |  |
| O=C(Cc1cccc(NC(=O)C2CCCN(C(=O)CCc3ccccc3)C2)c1)Nc1ccc(C(=O)N2CCCCC2)cc1 (stereo unspecified) |  | inactive: -32.5% |
| N#C/C(=C\c1c(Cl)cccc1Cl)c1nc2ccccc2o1 | inconclusive [activator, single point] |  |
| O=C(NCc1cc(C(F)(F)F)ccc1F)C1CCC(=O)N(C2CC2)C1 (stereo unspecified) |  | inactive: -3.95% |
| CCOc1ccc2nc(N(CCN(CC)CC)C(=O)/C=C/c3cccs3)sc2c1 | inconclusive [activator, partial curve, poor fit] |  |

| SMILES | Potency | activity, positive = re-replication |
| --- | --- | --- |
| O=C(NC1CCCCC1)c1cc2nc(-c3ccco3)cc(C(F)(F)F)n2n1 |  | inactive: -2.83% |
| NC(=O)CCN1CCN(C(=O)c2ccc3nc(Cc4cccc(Cl)c4)oc3c2)CC1 | inconclusive [activator, partial curve, poor fit] |  |
| COc1ccccc1-c1sc2ccccc2c1C#Cc1ccc(N(C)C)cc1 |  | inconclusive: 90% [activator] |
| CN(C)c1ccc(N=Cc2nc(-c3ccccc3)oc2O)cc1 |  | inactive: 11.4% |
| Cc1ccc(-n2c(C)cc(/C=N/NC(=O)CN(c3ccc(C)cc3C)S(C)(=O)=O)c2C)cc1 |  | inactive: 8.07% |
| COc1ccc(-n2c(N)c(C(=O)NCc3ccco3)c3nc4ccccc4nc32)cc1 |  | inactive: 4.17% |
| O=c1c2ccccc2sn1-c1nccs1 | active: 16.4 µM |  |
| CC(C)n1c(O)c(N=NC(=O)Cn2ccc(C(F)(F)F)n2)c2ccccc21 | inconclusive [activator, single point] |  |
| O=C(CN1CCN(C(=O)c2ccc(OCc3cn4ccccc4n3)cc2)CC1)Nc1cccc(F)c1 |  | inactive: 7.6% |
| Cc1c(Cc2ccc3c(c2)OCO3)sc(NC(=O)c2ccccc2)c1C(N)=O | active: 13 µM |  |
| CCC(C)[C@H](NC(=O)[C@@H]1CSC2c3ccccc3C(=O)N21)C(=O)NCc1ccncc1 (stereo partly specified) |  | inactive: -3.86% |
| Cc1c(C(=O)N2CCN(CCc3ccccc3)CC2)oc2ccccc12 | inconclusive [activator, single point] |  |
| Cc1ccc(C(=O)N2C(=O)c3cccc(N)c3C2=O)o1 |  | inactive: -8.35% |
| CCN(CC)S(=O)(=O)c1ccc(/C=C/C(=O)OCC(=O)Nc2cccnc2Cl)cc1 |  | inactive: -5.92% |
| CC(NC(=O)c1cc(-c2ccncc2)nc2ccc(Br)cc12)C1CCCO1 (stereo unspecified) |  | inactive: 3.93% |
| CCOC(=O)c1ccc(NC(=S)NCc2ccccc2)cc1 | inconclusive [activator, single point] |  |
| CCN(CCCNC(=O)CCCOc1cc(=O)n(C)c2ccccc12)Cc1ccccc1 | inconclusive [activator, single point] |  |
| CC(C)N(C(=O)Cn1cc(S(=O)(=O)CC(=O)NCc2ccccc2)c2ccccc21)C(C)C | inconclusive [activator, partial curve, poor fit] |  |
| C#CCOCCOCCOCCNc1nc(N2CCOCC2)nc(N2CCN(C(=O)[C@H]([C@@H](C)CC)n3cc(CCCCN)nn3)CC2)n1 | inconclusive [activator, partial curve, poor fit] |  |
| NS(=O)(=O)c1ccc(CCNC(=O)c2ccc3nc4ccc(Cl)cc4c(=O)n3c2)cc1 | inconclusive [activator, single point] |  |
| CCOC(=O)CC1C(=O)NCCN1S(=O)(=O)c1cc(Cl)c(Cl)cc1Cl (stereo unspecified) | inconclusive [activator, single point] |  |
| CC1C(=O)N(Cc2ccccc2F)c2ccccc2N1C(=O)c1c(F)cccc1F (stereo unspecified) | active: 20.6 µM |  |

| SMILES | Potency | activity, positive = re-replication |
| --- | --- | --- |
| CCOC(=O)C1CCN(C(=O)/C=C/c2ccc3c(c2)OCO3)CC1 | inconclusive [activator, partial curve, poor fit] |  |
| Cc1cc(SCC(=O)Nc2ccc(O)cc2)n2ncc(-c3ccccc3)c2n1 | inconclusive [activator, single point] |  |
| O=C(CNc1ccc(Br)cc1)c1ccc(O)cc1 | inconclusive [activator, single point] |  |
| CN(C(=O)CN1C(=O)/C(=C/c2ccc(F)cc2)SC1=S)C1CCS(=O)(=O)C1 (stereo unspecified) | inconclusive [activator, single point] |  |
| O=C1NC(C(=O)O)=CC(c2cccc(Cl)c2Cl)N1 (stereo unspecified) | inconclusive [activator, full curve, poor fit] |  |
| CN(C)CCNS(=O)(=O)c1ccc(N2CCN(c3ccc(F)cc3)CC2)c([N+](=O)[O-])c1 | inconclusive [activator, single point] |  |
| CCOC(=O)c1ccc(Nc2nnc(C(C)(C)C)c(=O)[nH]2)cc1 | inconclusive [activator, partial curve, poor fit] |  |
| COc1ccc(NS(=O)(=O)c2ccc(N3CC(O)=C(c4ccccc4)C3=N)cc2)cc1 |  | inactive: -6.49% |
| Cc1ccc(NC(=O)/C(=C\c2ccc3c(c2)OCO3)NC(=O)c2ccco2)cc1 |  | inactive: 6.47% |
| NC1=NC[C@H](c2ccccc2)N1CCc1cc(C(F)(F)F)cc(C(F)(F)F)c1 | inconclusive [activator, single point] |  |
| Cc1cccc(C)c1OCc1nnc(SCC(=O)Nc2nccs2)n1-c1ccccc1 | inconclusive [activator, partial curve, poor fit] |  |
| Cc1ccc(C(=O)/C=C/c2cc(Br)cc(Br)c2O)o1 | inconclusive [activator, full curve, poor fit] |  |
| Cc1c(C(=O)NCc2cccnc2)sc2nc(-c3ccccc3)cn12 | inconclusive [activator, single point] |  |
| CCN(CC)CCCN1C(=O)C(O)=C(C(=O)c2cc3cccc(OC)c3o2)C1c1ccncc1 (stereo unspecified) | inconclusive [activator, full curve, poor fit] |  |
| CC[C@H](C)[C@H](NC(=O)c1ccc(Cl)cc1)C(=O)OCC(=O)c1ccc2c(c1)NC(=O)CO2 | inconclusive [activator, single point] |  |
| NC1=NC(S)C2N=CN=C2N1 (stereo unspecified) | inconclusive [activator, full curve, poor fit] |  |
| Cc1ccc(NS(=O)(=O)c2c(F)cc(F)c(Cl)c2F)cc1S(=O)(=O)N1CCOCC1 |  | inactive: 2.31% |
| Cc1ccc(NC(=O)Nc2cccc([N+](=O)[O-])c2)cc1F | inconclusive [activator, single point] |  |
| CSCCC(NS(=O)(=O)c1ccc(Cl)cc1)C(=O)OCC(=O)c1c(C)[nH]c2ccccc12 (stereo unspecified) | active: 11.6 µM |  |
| O=c1c2cc(F)ccc2sn1-c1ccccc1 | inconclusive [activator, single point] |  |
| O=C(NCCCO)/C(=C\c1cn(-c2ccccc2)nc1-c1cccnc1)NC(=O)c1ccccc1 |  | inactive: 0.154% |
| CN(C)c1ccc(C(C(=O)NCC2CCCO2)N(C(=O)c2snc(C(N)=O)c2N)c2ccccc2)cc1 (stereo unspecified) | inconclusive [activator, partial curve, poor fit] |  |
